The target of experiment [1] is T1, human PCSK9 (human, UniProt Q8NBP7). The experiment can be described thus: cell-based or functional assay.
For experiment [2], the target named is T1, human PCSK9. Put plainly: SPR (Biacore), 10Fn3 protein or Fc fusion captured by anti-His or anti-human antibody, target in flow, 25 C, 1:1 fit. Background: In SPR one partner is held on a chip, and binding of the other changes the refractive index at the surface.
Experiment [3] deals with T1, human PCSK9. Put plainly: cell-based or functional assay. The source holds these as a separate data set.
The target in a further experiment is VEGFR2 (Homo sapiens (Human), UniProt P35968 20-764). The experiment can be described thus: SPR (Biacore), 10Fn3 protein or Fc fusion captured by anti-His or anti-human antibody, target in flow, 25 C, 1:1 fit.
The target of the next experiment is T2, human recombinant IL-23 (human, UniProt Q9NPF7 20-189; P29460 23-328).
T2 sequence (looked up) 1: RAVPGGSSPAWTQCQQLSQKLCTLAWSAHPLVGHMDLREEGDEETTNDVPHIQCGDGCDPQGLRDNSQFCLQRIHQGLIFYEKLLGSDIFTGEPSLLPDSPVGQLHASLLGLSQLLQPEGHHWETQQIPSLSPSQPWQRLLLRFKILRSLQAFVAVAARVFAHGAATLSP
T2 sequence (looked up) 2: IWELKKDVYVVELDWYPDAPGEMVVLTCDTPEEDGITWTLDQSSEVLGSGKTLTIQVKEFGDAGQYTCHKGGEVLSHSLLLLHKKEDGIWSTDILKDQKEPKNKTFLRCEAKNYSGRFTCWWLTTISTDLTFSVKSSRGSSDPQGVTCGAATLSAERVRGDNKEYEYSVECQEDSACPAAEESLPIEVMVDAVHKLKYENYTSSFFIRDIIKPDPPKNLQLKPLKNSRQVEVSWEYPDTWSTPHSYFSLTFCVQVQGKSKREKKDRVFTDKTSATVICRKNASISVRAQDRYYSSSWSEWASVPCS
Put plainly: cell-based or functional assay.

Read-outs that look alike come from different tables or passages of the source.

T1 sequence (Q8NBP7 31-692 limits assumed): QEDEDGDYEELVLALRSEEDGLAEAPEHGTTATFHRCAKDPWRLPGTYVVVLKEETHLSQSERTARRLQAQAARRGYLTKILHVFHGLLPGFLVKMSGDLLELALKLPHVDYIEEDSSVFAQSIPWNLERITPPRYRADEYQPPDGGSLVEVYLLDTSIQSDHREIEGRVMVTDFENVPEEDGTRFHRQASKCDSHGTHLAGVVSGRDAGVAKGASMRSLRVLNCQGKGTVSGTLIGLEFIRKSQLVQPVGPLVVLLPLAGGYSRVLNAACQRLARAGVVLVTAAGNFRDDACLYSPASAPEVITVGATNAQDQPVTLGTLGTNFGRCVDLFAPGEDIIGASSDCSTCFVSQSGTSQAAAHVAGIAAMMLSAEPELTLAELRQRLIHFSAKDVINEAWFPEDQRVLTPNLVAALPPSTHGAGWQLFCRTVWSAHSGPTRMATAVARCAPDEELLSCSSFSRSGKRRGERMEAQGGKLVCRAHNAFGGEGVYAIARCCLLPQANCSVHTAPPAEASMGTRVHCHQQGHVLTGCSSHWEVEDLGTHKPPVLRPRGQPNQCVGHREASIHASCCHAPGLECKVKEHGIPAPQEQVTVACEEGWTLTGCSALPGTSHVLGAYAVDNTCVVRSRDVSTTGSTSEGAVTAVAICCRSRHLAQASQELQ
VEGFR2, sequence (P35968 20-764 limits assumed): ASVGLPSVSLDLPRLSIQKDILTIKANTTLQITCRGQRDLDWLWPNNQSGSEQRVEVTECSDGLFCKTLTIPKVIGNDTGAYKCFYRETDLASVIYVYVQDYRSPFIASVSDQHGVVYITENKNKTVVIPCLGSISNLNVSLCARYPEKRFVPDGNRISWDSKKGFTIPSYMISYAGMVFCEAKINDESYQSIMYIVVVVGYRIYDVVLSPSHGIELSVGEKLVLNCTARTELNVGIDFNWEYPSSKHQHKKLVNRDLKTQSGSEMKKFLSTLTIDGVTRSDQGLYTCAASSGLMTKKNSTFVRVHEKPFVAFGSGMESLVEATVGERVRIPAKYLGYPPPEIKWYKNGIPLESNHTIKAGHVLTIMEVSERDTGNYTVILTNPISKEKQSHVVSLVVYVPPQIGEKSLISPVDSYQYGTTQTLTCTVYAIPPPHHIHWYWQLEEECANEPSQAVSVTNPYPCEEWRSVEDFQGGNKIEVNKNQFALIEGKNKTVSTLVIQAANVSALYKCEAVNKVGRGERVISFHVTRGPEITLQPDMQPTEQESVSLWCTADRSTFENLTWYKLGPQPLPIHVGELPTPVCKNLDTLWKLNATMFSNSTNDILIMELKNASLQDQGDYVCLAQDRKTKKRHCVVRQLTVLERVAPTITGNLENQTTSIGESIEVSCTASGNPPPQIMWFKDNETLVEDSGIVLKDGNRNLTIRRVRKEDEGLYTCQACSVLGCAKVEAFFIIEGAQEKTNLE

B1: PRD289 (Fc fusion)
chain: GVSDVPRDLEVVAATPTSLLISWRPPIHAYGYYRITYGETGGNSPVQEFTVPIVEGTATISGLKPGVDYTITVYAVEYTFKHSGYYHRPISINYRTEIEPKSSGS[human IgG1 Fc with changes skipped]
notes: X-Fc orientation; also called 1784F03-Fc
For B1, the “IC50, HepG2 depletion inhibition” value in the experiment with human PCSK9 [1] stood at 9.15 nM. Moreover, in the experiment with human PCSK9 [2], the Kd (commonly the free concentration of one partner at which half of the binding sites on the other are occupied at equilibrium, for simple one-to-one binding) was found to be 8.6 nM; the koff (usually the first-order rate constant of dissociation) was 0.000103 s⁻¹; the kon (as a rule, the rate constant with which the complex forms) amounted to 12000 M⁻¹ s⁻¹.

B2: PRD290 (Fc fusion)
chain: GVSDVPRDLEVVAATPTSLLISWSPPANGYGYYRITYGETGGNSPVQEFTVPVGRGTATISGLKPGVDYTITVYAVEYTYKGSGYYHRPISINYRTEIEPKSSGS[human IgG1 Fc with changes skipped]
notes: X-Fc orientation; also called 1813E02-Fc
Consider B2, for which, in the experiment with human PCSK9 [3], the “IC50, HepG2 depletion inhibition” value came out at 4.2 nM. In the experiment with human PCSK9 [2], the affinity, expressed as Kd, was 10.5 nM; the koff was 0.000204 s⁻¹; the association rate constant (kon) was 19500 M⁻¹ s⁻¹.

B3: PRD292 (Fc fusion)
chain: [human IgG1 Fc with changes and a few adjoining residues skipped]GGGGSGGVSDVPRDLEVVAATPTSLLISWRPPIHAYGYYRITYGETGGNSPVQEFTVPIVEGTATISGLKPGVDYTITVYAVEYTFKHSGYYHRPISINYRTEI
notes: Fc-X orientation; also called Fc-1784F03
For B3, the “IC50, HepG2 depletion inhibition” value in the experiment with human PCSK9 [1] stood at 47.8 nM. In the experiment with human PCSK9 [2], the dissociation constant Kd came to 31.8 nM, the koff was 0.000149 s⁻¹ and the kon was determined as 4680 M⁻¹ s⁻¹.

B4: PRD293 (Fc fusion)
chain: [human IgG1 Fc with changes and a few adjoining residues skipped]GGGGSGGVSDVPRDLEVVAATPTSLLISWSPPANGYGYYRITYGETGGNSPVQEFTVPVGRGTATISGLKPGVDYTITVYAVEYTYKGSGYYHRPISINYRTEI
notes: Fc-X orientation; also called Fc-1813E02
Take B4: in the experiment with human PCSK9 [3], the “IC50, HepG2 depletion inhibition” value was 37.8 nM. In the experiment with human PCSK9 [2], binding was characterised by a dissociation constant (Kd) of 26.9 nM, the dissociation rate constant (koff) was 0.000172 s⁻¹ and the kon is 6380 M⁻¹ s⁻¹.

B5: C7FL-Fc (Fc fusion)
chain: GSVSDVPRDLEVVAATPTSLLISWRHPHFPTRYYRITYGETGGNSPVQEFTVPLQPPTATISGLKPGVDYTITVYAVTDGRNGRLLSIPISINYRTEI[human IgG1 Fc with changes skipped]
notes: also called anti-VEGFR2 Fc-10Fn3; C7FL-Fc (PRD1309)
In the experiment with VEGFR2, B5 displayed a Kd of 15.8 nM, a koff of 0.000169 s⁻¹ and a kon of 10700 M⁻¹ s⁻¹.

B6: PRD239 (Fc fusion)
chain: [human IgG1 Fc with changes and a few adjoining residues skipped]GGGGSGGVSDVPRDLEVVAATPTSLLISWGHYPLHVRYYRITYGETGGNSPVQEFTVPPRSHTATISGLKPGVDYTITVYAVTYYAQENYKEIPISINYRTEAS
Regarding B6, the “pSTAT3 IC50 (pM), Kit225 cells” value with human recombinant IL-23 was found to be 692 pM.

B7: PRD713 (Fc fusion)
chain: GVSDVPRDLEVVAATPTSLLISWGHYPLHVRYYRITYGETGGNSPVQEFTVPPRSHTATISGLKPGVDYTITVYAVTYYAQENYKEIPISINYRTEIEPKSSGS[human IgG1 Fc with changes skipped]
In the case of B7, the “pSTAT3 IC50 (pM), Kit225 cells” value with human recombinant IL-23 is 153 pM.

These data come from patent publication US20210122805A1 (Bristol-Myers Squibb, published 2021).
